Drawing on the RNAGym collection of RNA variant scans (doi:10.7554/elife.90254), this text covers self-cleavage for 167 variants.

Read counts are not given, so values of variants with three or more changes are uncertain.

To fix the notation:
B1: LINE1-mini (parent)
chain: GGCAGAGCUCAACACAGCGUGGCAAAGUGGCUGUGGCUAGACUGCC

Variants of B1 are the subject of the series. The series is described as follows: self-cleavage, relative activity (ratio to wild type); higher = more cleavage; in vitro, sequencing; the parent is a self-cleaving ribozyme.
Consider G30C G33U A41U C42G, for which the self-cleavage came to 0.04.

In the case of G30A G33U U43A, the self-cleavage is 0.

On to C31U U32A C42U, for which the self-cleavage came out at 0.08.

As to G30U G35C A39G, the self-cleavage was determined as 0.03.

With U28A C45G C46A, the self-cleavage was found to be 0.9.

Regarding C31U C37A U38A, the self-cleavage is 0.05.

Consider G30A G35A G36C U43A, for which the self-cleavage was determined as 0.06.

For C31U U34C C46A, the self-cleavage amounted to 0.02.

Consider G29U C37U U43C G44A, for which the self-cleavage worked out at 0.04.

Take U34G G35U U38A: the self-cleavage was determined as 0.02.

Turning to U28G G33U U38C, the self-cleavage is 0.02.

As for U34C G36U C46U, the self-cleavage worked out at 0.07.

On to G33A U43A C46A, for which the self-cleavage was 0.02.

Regarding U32A U34C C46G, the self-cleavage was 0.

As for U32A C37U A41G, the self-cleavage worked out at 0.03.

In the case of G30U C31A C37U A41G C46A, the self-cleavage worked out at 0.

For the variant G30A A39G G44C, the self-cleavage was found to be 0.1.

With G29A G35A C37U, the self-cleavage was determined as 0.01.

G30A U34G G36A G44A: the self-cleavage worked out at 0.02.

As to C31G U32C G40U, the self-cleavage was found to be 0.02.

On to C31G U32C G33C U34G, for which the self-cleavage turned out to be 0.02.

As to U32C U34C C37U, the self-cleavage stood at 0.03.

As to U28A G30U U34A U43A, the self-cleavage was 0.04.

U32G C37G U38A: the self-cleavage is 0.03.

For G29C G30U G33U U43C, the self-cleavage was determined as 0.02.

With G30C U32C G36A C37A, the self-cleavage came to 0.14.

For the variant U28A C31U U38A, the self-cleavage was found to be 0.27.

U32G C37U C45U: the self-cleavage was determined as 0.

On to C31G U32C C42A, for which the self-cleavage stood at 0.

With U28C G30U C45G, the self-cleavage was found to be 0.1.

Turning to U28C G30C G33C C46U, the self-cleavage came out at 0.05.

As for G29U G36C C46A, the self-cleavage came out at 0.13.

Consider G30U C31U C46G, for which the self-cleavage stood at 0.03.

On to G36A A39G G40U, for which the self-cleavage is 0.24.

Consider G29C U32A A41U, for which the self-cleavage is 0.44.

Take G33U G35C C45U: the self-cleavage was 0.06.

For G35U G36A G40U, the self-cleavage is 0.16.

Turning to G27U G33U G36C C37U G40U, the self-cleavage amounted to 0.12.

In the case of G27U G29U G40C, the self-cleavage worked out at 0.21.

G29A U34G C42G: the self-cleavage is 0.09.

Consider G29U C31G C42G, for which the self-cleavage came out at 0.06.

Consider G27C U32G G44U, for which the self-cleavage amounted to 0.03.

Turning to G36U C37G C42U C46A, the self-cleavage was found to be 0.01.

As for G36U C37U G40U, the self-cleavage was 0.01.

As for C31G C37U C46A, the self-cleavage came to 0.02.

Regarding U28A U32A G33C C37U, the self-cleavage came to 0.09.

For the variant G29A G33C C45A, the self-cleavage turned out to be 0.04.

As for U32G U34A U43G C46A, the self-cleavage stood at 0.

In the case of G30U G35A G36U C42U C45A, the self-cleavage was 0.04.

Take G36A G44A C45A: the self-cleavage was found to be 0.03.

Take C37A A39G C46A: the self-cleavage worked out at 0.02.

Regarding G30U A39C G44C, the self-cleavage was found to be 0.06.

Consider U34G U38C G40C, for which the self-cleavage came out at 0.02.

For the variant U28G U32A U43A, the self-cleavage was 0.01.

Take G36C C37G C45U: the self-cleavage was 0.05.

U34C G40U C42A: the self-cleavage stood at 0.02.

Take G35C U38C U43C: the self-cleavage was found to be 0.02.

Take G29U C31G U43A: the self-cleavage was found to be 0.55.

For U32C C42A U43C, the self-cleavage was 0.08.

As for G29U G30U C45G, the self-cleavage worked out at 0.13.

For the variant G29U C31G G40A C42A, the self-cleavage came out at 0.01.

As to C31A G40C C42A, the self-cleavage amounted to 0.01.

Take G35A C37U U38C: the self-cleavage turned out to be 0.05.

With G29U U34G U38A, the self-cleavage is 0.41.

Consider G35A U38C A41U U43C G44A, for which the self-cleavage turned out to be 0.19.

Consider C31G U32C A41U, for which the self-cleavage came out at 0.26.

In the case of G29U U38A A39C, the self-cleavage amounted to 0.51.

In the case of C31G G36A C37U U43A, the self-cleavage came out at 0.28.

For the variant U32G A41G C42G, the self-cleavage was found to be 0.05.

Turning to C31U U38A A39G C46A, the self-cleavage stood at 0.04.

Consider C31U U38A C46A, for which the self-cleavage was found to be 0.02.

On to G33C C42A G44A, for which the self-cleavage turned out to be 0.04.

In the case of G30U G36A C37A U43A, the self-cleavage was found to be 0.04.

With U34A C45A C46U, the self-cleavage was 0.07.

Turning to C31U G35A C37U, the self-cleavage was 0.08.

G27U C31G C45A: the self-cleavage amounted to 0.06.

As for U28C G35C C37U U38C, the self-cleavage is 0.06.

Consider G27U U38G C46G, for which the self-cleavage is 0.05.

As for G30A A39G C46A, the self-cleavage is 0.15.

G36U A41U C45G: the self-cleavage is 0.08.

Take G30C U34G A39G G44C: the self-cleavage came out at 0.07.

Regarding U28G C31U C42U, the self-cleavage came out at 0.14.

Take C37A G40A U43G C46U: the self-cleavage was 0.11.

With G27U C31A C42G, the self-cleavage is 0.08.

Consider U28A G30U C37G, for which the self-cleavage was determined as 0.19.

For U28G G35U C42G C46G, the self-cleavage was found to be 0.02.

On to U32G C37A G40U, for which the self-cleavage was 0.01.

In the case of G27U U28A G36U C42U, the self-cleavage is 0.02.

For the variant G33A G36C C37U C42G, the self-cleavage was 0.02.

With U28G U32A C45U, the self-cleavage worked out at 0.22.

Turning to G30U A39G C46A, the self-cleavage was determined as 0.08.

Turning to U32A U34G U38A, the self-cleavage was 0.16.

Take G27C U34G G35C: the self-cleavage was determined as 0.01.

For G27U G36U A39G, the self-cleavage was 0.01.

With G35U G36A U38A, the self-cleavage was determined as 0.07.

Regarding C37A G40A C45A, the self-cleavage stood at 0.04.

Regarding G29A C31A G33C, the self-cleavage turned out to be 0.1.

As for U34A G44C C46A, the self-cleavage came out at 0.03.

On to G33C G36C C37A, for which the self-cleavage was determined as 0.04.

With G33C G35A C42G, the self-cleavage amounted to 0.01.

With C31A G35U A39G, the self-cleavage was 0.06.

Regarding G29U U38G A41U C46A, the self-cleavage is 0.02.

Take U28C U38C C42G C45A: the self-cleavage came out at 0.14.

As for G33U U34A C46G, the self-cleavage amounted to 0.02.

Turning to G29A U32C G33A, the self-cleavage was 0.26.

G33U U43G C46G: the self-cleavage amounted to 0.03.

Turning to G29U G36U C46A, the self-cleavage stood at 0.1.

In the case of G33U A41G C45U, the self-cleavage was found to be 0.09.

With G33C G36A G44C, the self-cleavage turned out to be 0.01.

Consider G27U C42U U43G, for which the self-cleavage was 0.15.

With G29C U32A G35C A39G A41U, the self-cleavage came out at 0.06.

As for G33U G36U G44C, the self-cleavage was 0.03.

In the case of G27U G30U C45A, the self-cleavage was 1.31.

Take G35A C37A G40C G44U: the self-cleavage came out at 0.02.

Turning to G30A G33A C46A, the self-cleavage was 0.13.

Take G29U C31U G44A: the self-cleavage came out at 0.08.

Turning to C31A A39G C46A, the self-cleavage is 0.02.

In the case of G27U G35C A41U, the self-cleavage stood at 0.08.

Turning to C31A G36A A41G, the self-cleavage is 0.1.

G33A U38G G40A U43C: the self-cleavage is 0.02.

Consider G27C U43G C46U, for which the self-cleavage amounted to 0.01.

As to U32C G35U C37U A39U U43C, the self-cleavage is 0.07.

For G30A G36U G40A, the self-cleavage was 0.25.

With G30A G36U G40U, the self-cleavage came to 0.06.

On to G36U C42A C45A, for which the self-cleavage is 0.07.

For the variant C31U G36A G40A, the self-cleavage amounted to 0.07.

In the case of C31A G35A C46A, the self-cleavage was 0.03.

Turning to U34C C37G U38A, the self-cleavage came to 0.01.

Turning to G30U U32C G33C U34G, the self-cleavage amounted to 0.

Take G30U A41C C45A: the self-cleavage came out at 0.02.

Consider U28A G30C C37U C46U, for which the self-cleavage worked out at 0.03.

For the variant G30A A39U C45G, the self-cleavage is 0.04.

In the case of G29A U34A C37U, the self-cleavage came to 0.02.

For the variant G30A C31U C46A, the self-cleavage turned out to be 0.05.

On to G29A C31U G36C, for which the self-cleavage is 0.03.

Consider G29A G30U G33A G35C C45A C46A, for which the self-cleavage was 0.03.

G36U A39G G44A C45A: the self-cleavage turned out to be 0.02.

Turning to G29A G30U G35A, the self-cleavage is 0.01.

On to G33U A39U C45A, for which the self-cleavage was found to be 0.01.

Turning to G27U U32C C45G, the self-cleavage worked out at 0.04.

As to U34G G35U U43G, the self-cleavage came to 0.1.

U28A U34A C42U: the self-cleavage came out at 0.23.

On to G33U A39C G44U, for which the self-cleavage was 0.04.

Take G29U U34G C46A: the self-cleavage was 0.04.

As to U28C G30C G44U, the self-cleavage is 0.53.

With C37A G40A A41G, the self-cleavage is 0.06.

For C31A G33C G36U C37A, the self-cleavage stood at 0.29.

C31G G35U A39U: the self-cleavage was determined as 0.

In the case of G27U C42G U43A C46U, the self-cleavage was found to be 0.02.

Regarding U32G U38G C45A, the self-cleavage was 0.02.

C31U U38A C45G: the self-cleavage was 0.02.

For the variant C31G G40U C45U, the self-cleavage came to 0.06.

In the case of U28A G29U A41G, the self-cleavage came out at 0.99.

Consider G29A C42G U43G, for which the self-cleavage turned out to be 0.99.

As for U28A C31G A41U, the self-cleavage is 0.14.

Consider C31A G36C A41C G44U, for which the self-cleavage is 0.02.

Take U28G C31U U38G A41G: the self-cleavage is 0.01.

For the variant G36U G44U C45G, the self-cleavage stood at 0.04.

Regarding U28C C31U U32C C45A, the self-cleavage was 0.06.

With G30A U34A G35C G36U U38A G40U, the self-cleavage came to 0.08.

Turning to G36A A39U G44U C46U, the self-cleavage was determined as 0.07.

Turning to U28G C31U G44C, the self-cleavage came to 0.06.

In the case of U34A G36A G40C, the self-cleavage turned out to be 0.03.

With C31U U32A U34A, the self-cleavage was 0.06.

As for C31U U32C A41C C42A, the self-cleavage was 0.02.

As for U34G U38C U43A C45U, the self-cleavage came out at 0.07.

As for G30U C42U U43G G44C, the self-cleavage is 0.01.
